The results in this text go back to the antibiotic and cytotoxicity screens of Wong et al. (2023).

Molecules are shown by their SMILES. The list shows a part of the results.

The subject of this assay is HepG2. The experiment in a line: cytotoxicity call (relative viability < 0.9). The note with it: 10 µM.
In the case of `COCC#Cc1cnc2c(c1)C(=O)N([C@@H](C)CO)C[C@@H](C)[C@@H](CN(C)C(=O)c1ccc3c(c1)OCO3)O2`, the cytotoxicity call is “inactive”.

Consider `C[C@H]1CN([C@@H](C)CO)C(=O)Cc2cc(NC(=O)CCCCCC(=O)Nc3ccccc3N)ccc2O[C@@H]1CN(C)S(C)(=O)=O`, for which the cytotoxicity call was “inactive”.

On to `COc1ccc(NC(=O)N(C)C[C@H]2OCCCC[C@@H](C)Oc3ccc(NC(=O)C4CCCCC4)cc3C(=O)N([C@@H](C)CO)C[C@H]2C)cc1`, for which the cytotoxicity call was “inactive”.

As for `C[C@@H]1CN([C@@H](C)CO)C(=O)c2cc(NC(=O)Nc3ccc(C(F)(F)F)cc3)ccc2O[C@@H]1CN(C)CC1CCCCC1`, the cytotoxicity call was “active”.

On to `COc1ccccc1S(=O)(=O)N[C@@H]1CC[C@H](CCNC(=O)C2CC2)O[C@H]1CO`, for which the cytotoxicity call was “inactive”.

With `C[C@@H]1CN([C@H](C)CO)C(=O)c2cc(NS(=O)(=O)c3ccc(Cl)cc3)ccc2O[C@H]1CN(C)Cc1ccc(C(=O)Nc2ccccc2N)cc1`, the cytotoxicity call was “inactive”.

Turning to `COc1ccc(OCCN2CCC(C(=O)N[C@@H](c3ccc(F)cc3)c3ccc4ccccc4n3)CC2)cc1`, the cytotoxicity call was “active”.

As to `NS(=O)(=O)c1ncn(Cc2ccccc2)n1`, the cytotoxicity call was “inactive”.

`Cc1noc(C)c1NC(=O)Nc1ccc2c(c1)C(=O)N([C@@H](C)CO)C[C@H](C)[C@H](CN(C)S(=O)(=O)c1cccs1)OCCCC[C@H](C)O2`: the cytotoxicity call was “inactive”.
